According to PubChem BioAssay AID488969 (Vanderbilt High Throughput Screening Facility, 2010):
In all, about 110,000 compounds were measured (“z-score”: median about -0.1, highest 2% from about 2 on). This is one part of the list. The source made the active and inactive calls.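 The calls were made as follows: active = z-score in the third read window above 3 or below -3; inactive = the rest.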

biological target: Metabotropic glutamate receptor 8 (Rattus norvegicus) (UniProt P70579); experiment: mGluR8 Gi/Go-coupled signaling modulation – cell-based, rat, thallium flux, HTS, primary screen (AID 488969); details: HEK293 rat mGluR8, GIRK (G protein-gated inwardly rectifying potassium channel) thallium flux, FluoZin2; at 10 µM; stronger effect = higher value; submaximal glutamate (EC20) added with thallium
Sequence of UniProt P70579 (P70579 whole entry, looked up): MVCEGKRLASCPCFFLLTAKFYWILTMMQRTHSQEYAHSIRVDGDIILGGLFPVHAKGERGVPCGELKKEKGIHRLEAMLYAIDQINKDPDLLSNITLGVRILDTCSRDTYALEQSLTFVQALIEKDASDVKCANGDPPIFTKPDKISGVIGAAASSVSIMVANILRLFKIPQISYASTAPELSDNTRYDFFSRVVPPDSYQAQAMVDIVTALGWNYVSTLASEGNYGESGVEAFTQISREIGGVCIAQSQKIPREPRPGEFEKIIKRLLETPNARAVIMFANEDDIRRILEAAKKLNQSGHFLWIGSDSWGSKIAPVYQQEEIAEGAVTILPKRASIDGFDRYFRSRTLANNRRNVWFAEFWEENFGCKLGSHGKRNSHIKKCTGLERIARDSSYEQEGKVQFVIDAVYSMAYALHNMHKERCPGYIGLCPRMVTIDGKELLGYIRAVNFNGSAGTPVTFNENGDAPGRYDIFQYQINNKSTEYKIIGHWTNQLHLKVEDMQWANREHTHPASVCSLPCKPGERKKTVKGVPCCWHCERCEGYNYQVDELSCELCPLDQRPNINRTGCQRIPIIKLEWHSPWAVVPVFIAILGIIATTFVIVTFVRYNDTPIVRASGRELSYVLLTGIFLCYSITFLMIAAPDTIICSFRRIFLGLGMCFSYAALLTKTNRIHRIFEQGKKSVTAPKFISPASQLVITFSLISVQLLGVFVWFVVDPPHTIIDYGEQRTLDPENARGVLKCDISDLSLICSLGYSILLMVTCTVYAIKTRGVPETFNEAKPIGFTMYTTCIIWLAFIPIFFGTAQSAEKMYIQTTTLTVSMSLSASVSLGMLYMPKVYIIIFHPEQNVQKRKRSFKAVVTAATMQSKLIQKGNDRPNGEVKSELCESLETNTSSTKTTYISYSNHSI

Row | SMILES | z-score
1 | Cc1ccc(C(=O)Nc2ccc3c4c(cccc24)CC3)cc1[N+](=O)[O-] | 0.279
2 | COc1ccc(C(=O)Nc2cccc(OC)c2)cc1 | 0.175
3 | O=C(CSc1ccc2ccccc2n1)N1CCC(c2noc3ccc(F)cc23)CC1 | -0.0915
4 | O=[N+]([O-])c1ccc2c(c1)C(O)n1nc(-c3ccc(Cl)cc3Cl)nc1S2 (centres undefined) | 0.0785
5 | O=C(O)c1sccc1SCc1ccc(Cl)cc1Cl | -0.536
6 | CN(CC#CCC(c1ccccc1)c1ccccc1)C(C)(C)C | 0.756
7 | CC(=O)N(c1ccccc1)c1c(F)c(F)c(F)c(F)c1F | 0.16
8 | CC(=O)c1cccc(NC(=O)C2CCCN(S(=O)(=O)c3cccc4cccnc34)C2)c1 (centres undefined) | 0.941
9 | CS(=O)(=O)Nc1ccc(C2=NN(S(C)(=O)=O)C(c3ccc4c(c3)OCO4)C2)cc1 (centres undefined) | -0.268
10 | CCOC(=O)c1c(C)[nH]c(C)c1C(=O)CSc1nnc(-c2ccncc2)n1Cc1ccccc1 | 0.179
11 | COc1ccc(-c2nnc(NC(=O)c3ccc(S(=O)(=O)N4CCCc5ccccc54)cc3)o2)cc1 | 2.07
12 | CC(C)Cc1[nH]c(=O)c(C#N)c2c1CCCC2 | 0.306
13 | CC(C)CN(C(=O)CSc1nncs1)c1c(N)n(CC(C)C)c(=O)[nH]c1=O | 0.163
14 | CCCN(CCC)C(=O)Cn1c(=O)n(CCCCC(=O)NCc2ccco2)c(=O)c2ccccc21 | -0.0485
15 | CCOC(=O)Cc1nnc(Nc2ccc(C)cc2)c2ccccc12 | -0.717
16 | COc1ccc(NC(=O)Nc2cccc(C(=O)N3CCOCC3)c2)cc1OC | 0.0471
17 | Cc1ccc(-n2nc3c(c2NC(=O)c2ccc4c(c2)OCO4)CSC3)cc1 | -0.00852
18 | Cc1ccc(NC(=S)C2=C(O)c3ccccc3N(C)S2(=O)=O)cc1 | -0.0624
19 | COc1ccc(/C=C/C(=O)c2ccc[nH]2)cc1OC | 0.97
20 | CCOC(=O)C1=C(CP(=O)(c2ccccc2)c2ccccc2)NC(=O)NC1c1ccc(OC)cc1 (centres undefined) | -0.301
21 | CC(C)CCNC(=S)NC1CCCC1 | 0.0564
22 | CN(C)Cc1cc(CCNC(=O)c2ccc(Cl)cc2)ccc1O | 0.0103
23 | Cc1cc(C(=O)CSc2nnc(-c3ccccc3)n2-c2ccccc2)c(C)n1-c1ncn[nH]1 | -0.484
24 | Cn1c(=O)c2c(ncn2CC(=O)Nc2nc3ccc(F)cc3s2)n(C)c1=O | 0.54
25 | CC(C)C(OC(=O)c1cc2sccc2n1C)C(=O)NCC1CCCO1 (centres undefined) | 0.112
26 | Cc1ccc(N(Cc2cc3cc(C)ccc3[nH]c2=O)C(=O)c2cccs2)cc1 | -0.171

Row | SMILES | z-score
27 | COC(=O)c1ccccc1NC(=O)Cn1c(=O)n(Cc2ccccc2)c(=O)c2c(C)c(C)sc21 | -0.187
28 | Cc1ccc(-n2c(SCC(=O)NCCN3C(=O)CSC3=O)nnc2-c2ccccc2F)cc1 | -0.594
29 | Cc1ccc2oc(=O)n(CC(=O)OC(C)C)c2c1 | 0.627
30 | COc1ccc(NC(=O)c2c(Nc3ccccc3)sc(C(=O)c3ccc(F)cc3)c2N)cc1 | 0.0789
31 | COc1ccc(NC(=O)CCN2CC(C)OC(C)C2)c(OC)c1 (centres undefined) | 0.0465
32 | O=C1CSC(c2cn(-c3ccccc3)nc2-c2cccs2)N1Cc1ccccc1 (centres undefined) | 0.0123
33 | O=C(c1cccc(S(=O)(=O)N2CCCC2)c1)N1CCN(c2ccccc2F)CC1 | -1.1
34 | O=C(N/N=C/c1ccco1)C1COc2ccccc2O1 (centres undefined) | -0.0331
35 | CCCNS(=O)(=O)c1ccc(N2CCCC2=O)c([N+](=O)[O-])c1 | 0.0118
36 | CCn1c(COc2ccccc2)nnc1SCC(=O)NC1CCCCC1 | -0.985
37 | COc1ccc(C(=O)COC(=O)CSCc2c(C)noc2C)cc1OC | -0.995
38 | COc1ccc(Cl)cc1Nc1ncnc2sc(C)c(S(=O)(=O)N3CCC(C)CC3)c12 | -0.241
39 | CCOC(=O)c1c(NC(=O)CCCN2CCOCC2)sc2c1CC(C)(C)OC2 | -0.14
40 | N#Cc1c(-n2ccnc2)cccc1-n1ccnc1 | 0.0872
41 | CCOC(=O)c1cc2c(ccn2C)n1CC(=O)N(Cc1ccccc1)c1ccc(F)cc1 | 1.2
42 | Cc1ccc(CCNC(=O)C2CCCN2S(=O)(=O)c2ccc3c(c2)CCC(=O)N3)cc1 (centres undefined) | -0.412
43 | Cc1ccc2c(c1)NC(=O)c1cccnc1N2 | 0.0515
44 | O=C(CCn1c(=O)sc2ccccc21)NCc1ccco1 | 0.309
45 | CC(C)Cn1cc(C(=O)NC2CCN(Cc3ccccc3)CC2)c2c3ccccc3n(C)c2c1=O | -0.13
46 | COc1ccccc1CNC(=O)CCS(=O)(=O)c1cccc2nonc12 | -0.0177
47 | CCN(CC)CCCN1C(=O)C(O)=C(C(=O)c2ccc(C)o2)C1c1ccco1 (centres undefined) | -0.221
48 | Cc1ccc(NC(=O)Cn2nnc(C(=O)NCc3cccs3)c2N)cc1 | 0.163
49 | Cc1ccc(OCCC(=O)Nc2c(C)n(C)n(-c3ccccc3)c2=O)cc1 | 0.284
50 | Cc1cc(=O)oc(C)c1C(=O)Nc1c(C)n(C)n(-c2ccccc2)c1=O | -0.283
51 | O=C(COc1nc2ccccc2nc1N1CCOCC1)NC1CCCCC1 | 0.225
52 | O=S(=O)(NCc1cccnc1)c1cc(Cl)ccc1Cl | -0.195

Row | SMILES | z-score
53 | COC(=O)c1ccc(CNC(=O)COC(=O)CCC2CCCC2)cc1 | 0.00997
54 | N#C/C(=C/c1ccc(N2CCCCCC2)o1)c1cccc(F)c1 | -0.488
55 | O=C(NNC(=O)c1sc2cccc(Cl)c2c1Cl)Nc1ccccc1 | -0.00877
56 | CCn1c(SCC(=O)Nc2ccc3c(c2)OCO3)nc2c(c1=O)SC(C)C2 (centres undefined) | -1.26
57 | Cc1ccc(O)c(-c2cc3ccccc3[nH]2)c1 | -0.436
58 | COc1ccc2c(c1)c1ncn(CCN3CCCCC3)c(=O)c1n2C | 0.327
59 | CCCN(CCO)Cc1ccc2ccccc2c1 | 0.118
60 | CCCCOc1ccc(C(=O)Nc2cccc(C)n2)cc1 | 0.799
61 | O=C1c2[nH]nc(-c3ccccc3O)c2C(c2cccc(O)c2)N1Cc1ccco1 (centres undefined) | -1.07
62 | O=C(Cn1nc(Cc2ccncc2)c2ccccc2c1=O)N1CCc2ccccc2C1 | -0.433
63 | CCOC(=O)c1c(NC(=O)C2CCN(S(=O)(=O)c3cccs3)CC2)sc(C)c1C | -0.183
64 | COc1ccccc1NC(=O)CSc1nnc(-c2ccc(C)cc2)o1 | 0.0983
65 | CC(=O)Nc1cc(C(=O)N2CCCC2)ccc1S(=O)(=O)c1ccc(C)cc1 | -0.215
66 | O=C(CCCNC(=O)/C(=C\c1ccc(F)cc1)NC(=O)c1ccccc1)OCc1ccccc1 | -0.231
67 | CCn1c(SCC(=O)N2CCCC2)nc2ccccc2c1=O | -0.614
68 | O=C(NC(=S)Nc1ccccc1)c1csnn1 | active: 12.4
69 | Cc1ccc(C(=O)COC(=O)c2n[nH]c(=O)c3ccccc23)cc1 | -0.454
70 | Cc1ccc(NC(=O)CN2C(=O)N/C(=C/c3ccc(C)s3)C2=O)cc1 | 0.22
71 | COc1ccc(N2CCN(c3nc4ccccc4nc3NS(=O)(=O)c3ccccc3)CC2)cc1 | -0.415
72 | O=C(CNCCCO)Nc1cc(C(F)(F)F)cc(NC(=O)CNCCCO)c1Cl | -0.195
73 | CC1(C)CC2(CCO1)N1CC3(C)CN2CC(C)(C1)C3=O (centres undefined) | -0.0677
74 | O=C(NC(=S)Nc1cccc(NC(=O)c2ccccc2)c1)c1cccc([N+](=O)[O-])c1 | -0.0765
75 | COc1ccc(CSCC(=O)N/N=C/c2ccc(OCC(=O)N3CCCCC3)cc2)cc1 | 0.789
76 | O=C(CN1C(=O)c2ccccc2C1=O)Nc1ccc(S(=O)(=O)NCC2CCCO2)cc1 (centres undefined) | 0.358
77 | CCCCNC(=S)N=Nc1c(O)n(Cc2ccccc2)c2ccccc12 | active: 3.24
78 | C=CCNC(=O)/C(=C/c1cn(-c2ccccc2)nc1-c1cccc([N+](=O)[O-])c1)NC(=O)c1ccccc1 | 0.195

Row | SMILES | z-score
79 | CCN(CC)CCCNC(=O)c1nn(-c2ccc(OC)cc2OC)c(=O)c2ccccc12 | 0.819
80 | Cc1ccc(CN2C(=O)CCC2C(=O)NCCCN2CCOCC2)cc1 (centres undefined) | 0.61
81 | Cc1cc(C(F)F)n2ncc(C(=O)N3CCCCC3)c2n1 | 0.264
82 | O=C(Nc1ccccc1-c1nnn(CC(=O)N2CCCc3ccccc32)n1)c1cccc(Cl)c1 | -0.264
83 | O=C(/C(=C(/[O-])c1ccccc1)[n+]1ccccc1)c1ccc([N+](=O)[O-])cc1 | -0.0505
84 | O=C(CSc1nnc(CNC(=O)C23CC4CC(CC(C4)C2)C3)n1-c1ccccc1)Nc1ccccc1 | -0.232
85 | COc1ccc2cc(C)c3nnc(SCC(=O)Nc4nc(-c5ccc(F)cc5)cs4)n3c2c1 | -0.129
86 | CN1CCN(C(=O)c2ccc3c(c2)OCCO3)CC1 | -0.229
87 | O=C(NCc1ccc2c(c1)OCO2)c1ccc(CS(=O)(=O)c2cccc(C(F)(F)F)c2)o1 | -0.319
88 | CCOC(=O)C(NC(C)=O)(Nc1ccc(S(=O)(=O)Nc2nccs2)cc1)C(F)(F)F (centres undefined) | -0.0419
89 | CC(=O)c1cc(CC=C(C)C)c(O)cc1O | -0.324
90 | CC(C)C(C)(C#N)NC(=O)CSc1nc2scc(-c3ccc(F)cc3)c2c(=O)n1Cc1ccccc1 (centres undefined) | 0.87
91 | CC1CCN(C(=O)CCc2ccc(Oc3cc([N+](=O)[O-])cc([N+](=O)[O-])c3)cc2)CC1 | -0.246
92 | N#Cc1c(C(F)(F)F)cc(-c2cccs2)nc1SCc1ccc(Cl)nc1 | 0.143
93 | Cc1sc2ncnc(N3CCCCC3)c2c1C | -1.55
94 | CCCCOC(=O)CSCC(=O)N1N=C(c2cccs2)CC1c1ccc(F)cc1 (centres undefined) | -0.426
95 | NS(=O)(=O)c1ccc(N2N=C(c3ccc(Br)cc3)CC2c2ccc(F)cc2)cc1 (centres undefined) | 0.139
96 | Cc1ccsc1C(=O)N1CC(=O)Nc2ccccc21 | -0.171
97 | COc1ccc(NC(=O)c2cccnc2N2CCCC2)cc1 | 0.603
98 | COc1cc2c(cc1NC(=O)c1cccnc1)oc1ccccc12 | 0.495
99 | COc1cccc(CN(c2ccc3c(c2)CCC3)S(=O)(=O)c2ccc(-n3cnnn3)c(OC)c2)c1 | -0.386
100 | Cc1cc(C)n(-c2nc(NCC3CCCO3)c3c4c(sc3n2)COC(C)(C)C4)n1 (centres undefined) | -2
101 | CCc1ccc(C(C)NC(=O)c2ccc(F)cc2)cc1 (centres undefined) | -0.0454
102 | Cc1cc(C(=O)CSc2nc3ccccc3c(=O)n2C)c(C)n1Cc1ccc2c(c1)OCO2 | -0.571
103 | CCc1c(C)sc(NC(=O)CCc2ccc(OC)cc2)c1C(N)=O | 1.75
104 | COc1ccc(NC(=S)Nc2ncccc2C)c(OC)c1 | -0.494
